# From the supplement of paper PMC12217912
# Some of the results follow. Sequences were assembled here from the parent chain. Inactive controls read about 0.05.
# B1: TEV protease; numbered along this chain (parent)
# chain: MGESLFKGPRDYNPISSSICHLTNESDGHTTSLYGIGFGPFIITNKHLFRRNNGTLVVQSLHGVFKVKDTTTLQQHLVDGRDMIIIRMPKDFPPFPQKLKFREPQREERICLVTTNFQTKSMSSMVSDTSCTFPSGDGIFWKHWIQTKDGQCGSPLVSTRDGFIVGIHSASNFTNTNNYFTSVPKNFMELLTNQEAQQWVSGWRLNADSVLWGGHKVFMVKPEEPFQPVKEATQL
# Variants of: B1
# Test: raw area under fraction-flipped curve 0-4 h after induction (AUC4h, not background-subtracted), DNA-recorder readout of cleavage of the substrate (dimensionless); higher = more cleavage of the substrate by the protease variant
# Conditions: temperature: 34 °C; time window: 0-4 h after rhamnose induction
# Experimental: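 In vivo DNA recorder in E. coli TOP10(DE3) ΔrhaA at 34 °C. Each TEVp single-site mutant (parent TEVp 0) is paired with a single-site variant of the 7-mer TEVs (canonical ENLYFQ|S). The substrate sits between flexible linkers in a Bxb1-sfGFP-TEVs-SsrA fusion, so cleavage stabilises Bxb1 and speeds flipping of a recombination array, read by NGS. The value is the raw area under the fraction-flipped curve over 0-4 h after rhamnose induction (AUC4h), with ≥20 reads per time point. It is not background-subtracted; inactive controls average about 0.047.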
# 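Also: Bxb1 expression induced with 0.2% (w/v) L-rhamnose at OD600 near 0.5, cultures sampled hourly, flipped fraction per protease–substrate barcode pair counted by paired-end Illumina sequencing.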
Variant,area with substrate CNLYFQS,area with substrate FNLYFQS,area with substrate HNLYFQS,area with substrate INLYFQS,area with substrate KNLYFQS,area with substrate LNLYFQS,area with substrate MNLYFQS,area with substrate NNLYFQS,area with substrate RNLYFQS,area with substrate SNLYFQS,area with substrate TNLYFQS,area with substrate WNLYFQS,area with substrate YNLYFQS,area with substrate VNLYFQS,area with substrate PNLYFQS,area with substrate GNLYFQS
MGESLFKGPRDYNPISSSICHLTNESDGHTTSLYGIGFGPFIITNKHLFRRNNGTLVVQSLHGVFKVKDTTTLQQHLVDGYDMIIIRMPKDFPPFPQKLKFREPQREERICLVTTNFQTKSMSSMVSDTSCTFPSGDGIFWKHWIQTKDGQCGSPLVSTRDGFIVGIHSASNFTNTNNYFTSVPKNFMELLTNQEAQQWVSGWRLNADSVLWGGHKVFMVKPEEPFQPVKEATQL [R81Y],0.0599,0.0659,0.0642,0.0622,0.0644,0.0661,0.0877,0.0613,0.0486,0.0646,0.0643,0.0602,0.061,–,–,–
MGESLFKGPRDYNPISSSICHLTNESDGHTTSLYGIGFGPFIITNKHLFRRNNGTLVVQSLHGVFKVKDTTTLQQHLVDGRAMIIIRMPKDFPPFPQKLKFREPQREERICLVTTNFQTKSMSSMVSDTSCTFPSGDGIFWKHWIQTKDGQCGSPLVSTRDGFIVGIHSASNFTNTNNYFTSVPKNFMELLTNQEAQQWVSGWRLNADSVLWGGHKVFMVKPEEPFQPVKEATQL [D82A],0.0601,–,0.0529,–,–,–,–,–,–,–,0.0567,0.0567,0.0574,–,–,–
MGESLFKGPRDYNPISSSICHLTNESDGHTTSLYGIGFGPFIITNKHLFRRNNGTLVVQSLHGVFKVKDTTTLQQHLVDGRPMIIIRMPKDFPPFPQKLKFREPQREERICLVTTNFQTKSMSSMVSDTSCTFPSGDGIFWKHWIQTKDGQCGSPLVSTRDGFIVGIHSASNFTNTNNYFTSVPKNFMELLTNQEAQQWVSGWRLNADSVLWGGHKVFMVKPEEPFQPVKEATQL [D82P],0.059,–,–,–,–,–,0.0561,–,0.0534,0.0494,0.0467,0.0572,0.0632,0.0559,–,–
MGESLFKGPRDYNPISSSICHLTNESDGHTTSLYGIGFGPFIITNKHLFRRNNGTLVVQSLHGVFKVKDTTTLQQHLVDGRDMDIIRMPKDFPPFPQKLKFREPQREERICLVTTNFQTKSMSSMVSDTSCTFPSGDGIFWKHWIQTKDGQCGSPLVSTRDGFIVGIHSASNFTNTNNYFTSVPKNFMELLTNQEAQQWVSGWRLNADSVLWGGHKVFMVKPEEPFQPVKEATQL [I84D],0.0511,0.0358,0.0459,0.0385,–,–,0.0453,0.0602,0.035,0.0474,0.0569,0.043,0.0531,0.0579,0.0486,–
MGESLFKGPRDYNPISSSICHLTNESDGHTTSLYGIGFGPFIITNKHLFRRNNGTLVVQSLHGVFKVKDTTTLQQHLVDGRDMRIIRMPKDFPPFPQKLKFREPQREERICLVTTNFQTKSMSSMVSDTSCTFPSGDGIFWKHWIQTKDGQCGSPLVSTRDGFIVGIHSASNFTNTNNYFTSVPKNFMELLTNQEAQQWVSGWRLNADSVLWGGHKVFMVKPEEPFQPVKEATQL [I84R],0.0478,–,0.0626,0.0461,0.0526,0.065,0.0407,–,0.0453,0.0574,–,–,–,–,0.0557,0.0411
MGESLFKGPRDYNPISSSICHLTNESDGHTTSLYGIGFGPFIITNKHLFRRNNGTLVVQSLHGVFKVKDTTTLQQHLVDGRDMTIIRMPKDFPPFPQKLKFREPQREERICLVTTNFQTKSMSSMVSDTSCTFPSGDGIFWKHWIQTKDGQCGSPLVSTRDGFIVGIHSASNFTNTNNYFTSVPKNFMELLTNQEAQQWVSGWRLNADSVLWGGHKVFMVKPEEPFQPVKEATQL [I84T],0.0629,0.111,0.0581,0.056,–,0.0702,–,–,–,–,0.0739,0.054,–,–,–,0.0653
MGESLFKGPRDYNPISSSICHLTNESDGHTTSLYGIGFGPFIITNKHLFRRNNGTLVVQSLHGVFKVKDTTTLQQHLVDGRDMIILRMPKDFPPFPQKLKFREPQREERICLVTTNFQTKSMSSMVSDTSCTFPSGDGIFWKHWIQTKDGQCGSPLVSTRDGFIVGIHSASNFTNTNNYFTSVPKNFMELLTNQEAQQWVSGWRLNADSVLWGGHKVFMVKPEEPFQPVKEATQL [I86L],0.0715,–,–,0.0621,–,–,0.0882,–,–,–,0.0658,0.0572,–,–,–,–
MGESLFKGPRDYNPISSSICHLTNESDGHTTSLYGIGFGPFIITNKHLFRRNNGTLVVQSLHGVFKVKDTTTLQQHLVDGRDMIISRMPKDFPPFPQKLKFREPQREERICLVTTNFQTKSMSSMVSDTSCTFPSGDGIFWKHWIQTKDGQCGSPLVSTRDGFIVGIHSASNFTNTNNYFTSVPKNFMELLTNQEAQQWVSGWRLNADSVLWGGHKVFMVKPEEPFQPVKEATQL [I86S],0.0544,0.0401,0.0434,0.0255,0.0767,–,0.0356,–,0.0507,0.0566,–,0.0454,0.0446,0.0561,0.0519,0.0134
MGESLFKGPRDYNPISSSICHLTNESDGHTTSLYGIGFGPFIITNKHLFRRNNGTLVVQSLHGVFKVKDTTTLQQHLVDGRDMIITRMPKDFPPFPQKLKFREPQREERICLVTTNFQTKSMSSMVSDTSCTFPSGDGIFWKHWIQTKDGQCGSPLVSTRDGFIVGIHSASNFTNTNNYFTSVPKNFMELLTNQEAQQWVSGWRLNADSVLWGGHKVFMVKPEEPFQPVKEATQL [I86T],0.0063,–,–,0.0636,–,–,0.0696,0.0542,–,0.0625,–,0.0457,–,–,–,0.064
MGESLFKGPRDYNPISSSICHLTNESDGHTTSLYGIGFGPFIITNKHLFRRNNGTLVVQSLHGVFKVKDTTTLQQHLVDGRDMIIIAMPKDFPPFPQKLKFREPQREERICLVTTNFQTKSMSSMVSDTSCTFPSGDGIFWKHWIQTKDGQCGSPLVSTRDGFIVGIHSASNFTNTNNYFTSVPKNFMELLTNQEAQQWVSGWRLNADSVLWGGHKVFMVKPEEPFQPVKEATQL [R87A],0.0609,0.0597,–,–,–,0.0621,–,–,0.0758,–,0.0557,0.0628,0.0614,–,0.0913,0.068
